Experimental data: PubChem BioAssay AID1347073 (National Center for Advancing Translational Sciences (NCATS), 2019)
About 200 (0.44%) of roughly 45,000 compounds were called active. Another 7% or so got no clear call; they are omitted. The call rests on the fitted dose curve; in most records, active means well fitted activation curve with a large enough effect; inconclusive means small, poorly fitted or top-dose-only effect; inactive means no such curve, though single readings can be large or run the other way. The list shows a part of the results.

Experiment: qHTS of TDP-43 Inhibitors: NCGC Sytravon Library Screen; further: 0% is about no effect; nearly all actives have a fitted effect of over 55% in size
Conditions: yeast TDP-43 toxicity rescue, BacTiter-Glo growth, 24 h; series mostly up to 46.1 µM; growth rescue (activation): at the top concentration
Summary of the method: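 TDP-43-expressing yeast, pregrown in raffinose, seeded at OD600 0.02 in galactose medium with compound for 24 hr at 30 deg C. Growth read by BacTiter-Glo luminescence, so rescue of toxicity appears as activation.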

Compound | growth rescue (activation)
Cc1nc(N2CCN(S(=O)(=O)c3ccc(F)cc3)CC2)c2c(-c3cccs3)csc2n1 | inactive: 5.39%
O=C(O)c1ccc2c(c1)C(=O)N(c1cccc3ccccc13)C2=O | inactive: -12.6%
NS(=O)(=O)c1ccc(CCNC(=O)CN2CCCCC2)cc1 | inactive: 9.85%
CCc1ccc(C(=O)NCc2cnn(C)c2)s1 | inactive: 9.24%
O=C(CNC(=O)C12CC3CC(CC(C3)C1)C2)N1CCN(S(=O)(=O)c2cccs2)CC1 | inactive: 14.1%
CN(C(=O)CSc1nc2ccccc2c(=O)n1-c1ccccc1Cl)C1CCS(=O)(=O)C1 (centres undefined) | inactive: 14.2%
COc1ccc(NC(=O)C2Cc3c(-c4cccc(C(C)=O)c4)ccnc3O2)cn1 (centres undefined) | inactive: 6.25%
COc1cccc(Cn2nc3c4cc(F)ccc4n(Cc4ccc(F)cc4)cc-3c2=O)c1 | inactive: -4.63%
CC(C)(C)NC(=O)C(c1ccc(O)cc1)N(C(=O)CCC(=O)Nc1nccs1)c1ccc(F)cc1 (centres undefined) | inactive: -4.26%
CC(C)(C)c1ccc(CCC2OCC(CN3CCOCC3)O2)cc1 (centres undefined) | inactive: -18.4%
COc1ccccc1NCC(=O)NC(=O)NC1CCCCC1 | inactive: 4.65%
O=C(O)Cc1nc(-c2cccnc2)sc1-c1ccc(Br)cc1 | inactive: 2.36%
COC(=O)/C=C1\SC(=NC(=O)c2ccc(-c3ccccc3)cc2)NC1=O | inactive: 23%
COC(=O)Nc1ccc([N+](=O)[O-])cc1OC | inactive: 18.2%
COCCNS(=O)(=O)c1ccc(Cl)c(C(=O)NC2CCN(Cc3ccccc3)CC2)c1 | inactive: -2.72%
O=C(NCc1ccc(F)cc1)c1cc(C2CCCCN2S(=O)(=O)c2ccccc2)on1 (centres undefined) | inactive: 21.3%
CCCCc1ccc(S(=O)(=O)NC(=O)C2(C)CCN2C(=O)Cc2ccccc2)cc1 (centres undefined) | inactive: 25.2%
COc1ccc(OCCSc2nc(C)nc3ccccc23)cc1 | inactive: 24.2%
O=C(O)c1ccc2c3c(cccc13)C(=O)N(c1ccccc1)C2=O | inactive: 6.05%
CN1CCN(c2nc(NCCOC34CC5CC(CC(C5)C3)C4)nc(OCC(F)(F)F)n2)CC1 | inactive: 23.3%
Cc1ccc(-c2nc(S(=O)(=O)c3ccc(C)cc3)c(SCC(=O)NCC3CCCO3)o2)cc1 (centres undefined) | inactive: 9.5%
COc1ccc(OCc2nnc(SCC(=O)Nc3nnc(C4CC4)s3)n2C)cc1 | inactive: 7.81%
O=[N+]([O-])c1ccccc1S(=O)(=O)N1CCN(Cc2ccsc2)CC1 | inactive: 1.55%
O=C(CCc1nnc(C2CCCCC2)o1)NCc1cccc(-n2cccn2)c1 | inactive: 6.07%
O=C(CCNC(=O)c1ccc([N+](=O)[O-])cc1)Nc1ccc(N2CCOCC2)cc1N1CCOCC1 | inactive: 9.1%
CC1(C)C(C=C(Cl)Cl)C1C(=O)Nc1ccc([N+](=O)[O-])cc1 (centres undefined) | inactive: -92.4%

Compound | growth rescue (activation)
Cc1cccc(NC(=S)N2CCC(C(=O)c3ccc(F)cc3)CC2)c1 | inactive: 13.6%
CC1(C)C2([N+](=O)[O-])CN3CC1([N+](=O)[O-])CN(C2)C3c1ccc(O)c(O)c1 (centres undefined) | inactive: 29.2%
Cc1ccc(C2C(C(=O)c3cccs3)=C(O)C(=O)N2c2ccc(S(N)(=O)=O)cc2)cc1 (centres undefined) | inactive: 12.2%
CN(c1ccc(C(=O)N2CCCCC2)cc1)S(=O)(=O)c1cccs1 | inactive: -16.7%
Cc1ccc(NC(=O)CCC(=O)NNC(=O)NC2CCCCC2)c(C)c1 | inactive: 11.3%
Cc1cccc(NC(=O)c2cccc(S(=O)(=O)Nc3ccccc3C(=O)O)c2)c1 | inactive: 14.5%
S=C(NCCc1ccccc1)N1CCN(C2CCCCC2)CC1 | inactive: 10.8%
CC1(C(=O)NCCC(F)(F)F)Cc2c(-c3ccccc3)ccnc2O1 (centres undefined) | inactive: -2.29%
O=C(O)c1c(Cl)c(Cl)c(Cl)c(Cl)c1C(=O)N1CCOCC1 | inactive: 9.08%
O=C1COc2ccc(S(=O)(=O)NCc3ccccc3)cc2N1 | inactive: 4.34%
O=C(COc1ccccc1[N+](=O)[O-])Nc1ccc(NC(=O)c2cc3ccccc3o2)cc1 | inactive: 12%
COC(=O)c1c(NC(=O)CCl)sc(C(=O)N2CCOCC2)c1C | inactive: 14.2%
Cc1ccccc1NC(=O)CSc1cn[nH]n1 | inactive: 18.5%
O=C(NCC1CCCO1)c1ccc(CS(=O)(=O)Cc2ccc(F)cc2)o1 (centres undefined) | inactive: -16.2%
O=C(Cc1coc(-c2ccc(F)cc2)n1)NCc1ccccc1 | inactive: 30%
O=C(NCCc1ccccc1)C1CCN(C2CCN(C(=O)CC3=CCCCC3)CC2)CC1 | inactive: 2.52%
COc1ccc(O)c(/C=N/n2c(-c3ccco3)csc2=Nc2cccnc2)c1 | inactive: 2.18%
Cc1nc2sccn2c(=O)c1S(=O)(=O)Nc1ccc(N2CCN(C(=O)C(C)C)CC2)cc1 | inactive: 4.06%
COC(=O)Nc1ccc(S(=O)(=O)Nc2ncccn2)cc1 | inactive: -5.98%
COc1cccc(N2CCN(C(=O)c3ccc(N4C(=O)NC5CC4(C)Oc4ccccc45)cc3)CC2)c1 (centres undefined) | inactive: 28.7%
CC(=O)Nc1ccccc1OCC(=O)N(Cc1ccccc1)C(C)C | inactive: -6.94%
CC(C(=O)Nc1ccc(F)c(F)c1F)N(C)CC(=O)Nc1ccccc1Br (centres undefined) | inactive: 30.6%
O=C(c1cccc(Oc2ccccc2)c1)N1CCN(c2ccccn2)CC1 | inactive: 9.68%
CN(Cc1nnc(-c2ccc(F)cc2)o1)c1ccccc1 | inactive: 19.3%
O=C(O)C1=NOC(CNC(=O)c2ccccc2Cl)C1 (centres undefined) | inactive: -1.42%
COc1ccc(C2C(C#N)=C(N)Oc3c2ccc2cccnc32)cc1OC (centres undefined) | inactive: -2.01%

Compound | growth rescue (activation)
COc1ccc(CC(=O)NNS(=O)(=O)c2ccc(F)cc2)cc1 | inactive: 2.31%
COc1cc(/C=C/[N+](=O)[O-])ccc1OCc1cccc(C(=O)O)c1 | inactive: -18.3%
CCC(C)(C(=O)Nc1ccc(OC)cc1)N(C)C(=O)Cn1nnnc1N (centres undefined) | inactive: 1.65%
COc1ccccc1C(=O)NCC(=O)NCCc1ccc(Cl)cc1 | inactive: -0.466%
O=C1C=C(O)C(n2cncn2)C(c2ccc(F)cc2)C1 (centres undefined) | inactive: 8.44%
NC(=O)c1ccc(NC(=O)COC(=O)c2ccc3ccccc3n2)cc1 | inactive: 2.67%
COc1cccc(NC(=O)C2(C)CCN2Cc2ccccc2Cl)c1 (centres undefined) | inactive: 0.338%
Cc1ccc(N2C(=O)CC(NNc3nc4ccccc4s3)C2=O)cc1 (centres undefined) | inactive: 42.5%
COc1ccc2[nH]cc(CCNC(=O)CS(=O)(=O)Cc3ccccc3)c2c1 | inactive: 13.8%
Cc1cc(NC(=O)CCC(=O)NNC(=O)c2ccc(C(C)(C)C)cc2)no1 | inactive: -14.5%
O=C(Nc1ccc(N2CCOCC2)cc1)c1nc2ccccc2s1 | inactive: 16.9%
CC(=O)N1C(=O)/C(=C2\SC(=S)N(NC(=O)c3ccc(O)cc3)C2=O)c2ccccc21 | inactive: 0.675%
CN1CCCN(C(=O)CC2(CC(=O)O)CCCCC2)CC1 | inactive: -0.141%
COc1ccc(CNC(=O)C(C)N2C(=O)COc3ccc(C)cc32)c(OC)c1 (centres undefined) | inactive: -1.31%
O=C(c1ccc(S(=O)(=O)NCc2ccco2)cc1)N1CCCC1 | inactive: 3.29%
COc1c(OC(C)=O)ccc(/C=N\NC(=O)c2ccc(Br)cc2)c1[N+](=O)[O-] | inactive: 7.39%
COc1ccc(NC(=O)C(CC(=O)O)Cc2ccc(Br)cc2)cc1 (centres undefined) | inactive: -15%
CC1CC(C)CN(CCOCCSc2ccc(Cl)cc2)C1 (centres undefined) | inactive: 12.3%
Nc1ccc(Cl)c(S(=O)(=O)Nc2ccc(Cl)cc2)c1 | inactive: 11.6%
O=C(NC1CCCCC1)c1cc(-c2ccc(O)cc2)on1 | inactive: 16.5%
CC(C)=CCN1CCN(CCCn2cccn2)CC1CCO (centres undefined) | inactive: -17.6%
CC(C)CNC(=O)C1(C)CCCN1C(=O)c1cccnc1 (centres undefined) | inactive: 7.33%
O=C(N/N=C/c1ccncc1)c1ccc(NC(=O)c2ccc(Cl)cc2)cc1 | inactive: 11.4%
COc1ccc(C(=O)Nc2ccc3c(c2)nc(CCNC(=O)c2ccco2)n3C)cc1 | inactive: 4.35%
CC(C)CNc1ncnc2c1ncn2[C@H]1CN(Cc2ccc(Cl)cc2)C[C@@H](CO)O1 | inactive: 12.2%
Cc1ccc(SCC(=O)OCC(=O)NCCc2ccc(S(N)(=O)=O)cc2)c(C)c1 | inactive: 10.2%

Compound | growth rescue (activation)
Cc1ccc(NC(=O)C(C)N2CCc3ccccc3C2)cc1 (centres undefined) | inactive: 0.583%
Cc1ccc(-n2nc(C)c(C3(O)C(=O)N(C(C)C)c4ccccc43)c2N)cc1 (centres undefined) | inactive: -9.77%
Cc1cccc(C)c1NC(=O)COC(=O)c1ccccc1Nc1ccccc1 | inactive: 1.64%
CCOc1ccc(C(=O)OCC(=O)NCc2ccccc2)cc1OCC | inactive: 22.5%
CC(C)NC(=O)C1(C)CCCN1C(=O)c1ccccc1Br (centres undefined) | inactive: 15.8%
O=C(COC(=O)/C=C/c1ccccc1)NCCc1ccc(F)cc1 | inactive: 2.31%
N#CCCn1c(SCC(=O)Nc2ccc(N3CCOCC3)cc2)nc2ccccc21 | inactive: 9.24%
COc1ccc(S(=O)(=O)N2CCC(C(=O)NC3CCCC3)CC2)cc1OC | inactive: 13.7%
CN(c1ccccc1)S(=O)(=O)c1ccc(Cl)c(C(=O)NCCc2c[nH]c3ccccc23)c1 | inactive: -0.221%
O=C(CNC(=O)Cc1cccc2ccccc12)NCc1ccccc1F | inactive: -1.22%
CC(OC(=O)c1ccc(C#N)cc1)C(=O)Nc1ccc(Cl)cn1 (centres undefined) | inactive: -16.3%
COc1ccc(OC)c(/C=C/C(=O)OCC(=O)Nc2cccc(C(C)=O)c2)c1 | inactive: 15.8%
CN(CC(=O)Nc1ccc(C#N)cc1)CC(=O)Nc1ccc(N2CCOCC2)cc1 | inactive: -20.4%
O=C(O)CC12C[C@H]3C[C@@H](C1)CC(n1ncc(N4CCN(c5ccccc5)CC4)c(Cl)c1=O)(C3)C2 | inactive: 6.86%
C/C(Cc1ccccc1)=N\NC(=O)CNC(=O)c1ccccc1Cl | inactive: 12.4%
CCNC(=O)NC(=O)C(C)Sc1nc2ccccc2c(=O)n1-c1cccnc1 (centres undefined) | inactive: 7.26%
COc1cc(Cl)c(C)cc1NC(=O)COc1ccc(C)nc1[N+](=O)[O-] | inactive: 17.6%
Cc1cccc(NS(=O)(=O)c2ccc3[nH]c(=O)oc3c2)c1C | inactive: 1.26%
C1=C(CCNc2ncnc3c2[nH]c2ccccc23)CCCC1 | inactive: 16.4%
Cc1c(NS(=O)(=O)c2cccc(C(=O)NCc3ccccc3Cl)c2)c(=O)n(-c2ccccc2)n1C | inactive: 3.88%
COc1cccc(CC(=O)N2CCN(c3ccccc3[N+](=O)[O-])CC2)c1 | inactive: 4.1%
CCOc1cc(Br)c(COc2ccc(C)nc2[N+](=O)[O-])cc1OCC | inactive: -1.33%
CCN(C(=O)CSc1nnnn1-c1ccc(Cl)cc1)C1CCS(=O)(=O)C1 (centres undefined) | inactive: -0.699%
O=C(CSc1cc(Cl)ccc1Cl)NCCN1C(=O)CSC1=O | inactive: 5.35%
Cc1cccc(NC(=O)CSc2cccc[n+]2[O-])c1C | inactive: -13.5%
CCCNC(=O)C1(C)CCN(C(=O)c2ccc3c(c2)CCO3)C1 (centres undefined) | inactive: -0.193%
